Here are results for 89 molecules from PubChem BioAssay (NCI).

Several values for one entry are separate records, joined by “and”; a condition that tells them apart may be missing. Identical values can stand only once.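 Protocol summary: plate cells (96-well), add compound at 5 concentrations, incubate 48 h, interpolate endpoints linearly. Abbreviation: GI50, concentration required for 50% inhibition of growth. TGI marks complete inhibition of growth.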 Bounds are passed on as bounds.

The subject of this test is NCI-H322M lung. Kind of test: NCI anticancer screen, dose series, 48 h.

`CCCCNC(=S)Nc1nc(C(=O)NNS(=O)(=O)c2ccccc2)cs1` registered a TGI above 100 µM.

`CCCCCCCCCC[C@@H](O)[C@@H]1CC[C@@H]([C@@H]2CC[C@@H]([C@@H](O)CCCCCCCCCCC(O)CC3=CC(C)OC3=O)O2)O1` (stereo partly drawn) showed a TGI above 10 µM.

Take `CCOC(=O)C(=O)Nc1c(C)cccc1CC`: the TGI was above 100 µM.

Take `O=S(=O)(O)c1ccc2cc(N=Nc3cc(S(=O)(=O)O)c4cccnc4c3O)ccc2c1`: the TGI is above 100 µM.

`N#C/C(=C(\O)C(=O)O)c1ccc(-c2cccc3ccccc23)cc1` displayed a TGI above 100 µM.

On to `CCCCS(=N)(=O)CC[C@H](N)C(=O)O` (stereo partly drawn), for which the GI50 was above 10000 µM and the TGI is above 10000 µM.

With `Cn1nnnc1[N-]Cc1ccccc1.[Au+].c1ccc([PH+](c2ccccc2)c2ccccc2)cc1`, the GI50 is 15.2 µM and the TGI turned out to be 28.6 µM.

`CC(=O)O[C@H]1/C(=C/c2ccc(N(C)C)cc2)C[C@H]2[C@@H]3CC=C4C[C@@H](N5CCCC5)CC[C@]4(C)[C@H]3CC[C@]12C`: the TGI was above 100 µM.

For the molecule `Cc1ccc(N2C(=O)C(Cl)=C(Nc3cccc(O)c3)C2=O)cc1Cl`, the GI50 is 18 µM and the TGI is 33.1 µM.

Consider `CCOC(OC1=C(C#N)CCC1)C(CC)[Se]c1ccccc1` (stereo not drawn), for which the TGI is above 100 µM.

Molecule `CC[C@@]1(OC(=O)CCC(=O)O)C(=O)OCc2c1cc1n(c2=O)Cc2cc3ccccc3nc2-1` showed a TGI of 2.45 µM.

With `CCOC(=O)/C(C1=CC(=O)C(=O)c2ccccc21)=C(/C)NCc1ccccc1`, the GI50 was 1.95 µM and the TGI amounted to 5.4 µM.

As for `Cn1cnc([N+](=O)[O-])c1Sc1ncnc2nc[nH]c12`, the GI50 is 2.69 µM and 4.84 µM; the TGI is above 100 µM.

Consider `O=C1NC(=O)C(c2ccccc2Cl)=C1Nc1cccc(O)c1`, for which the GI50 is above 25 µM and the TGI is above 25 µM.

In turn, `CN(C)c1ccc(/C=N/NC2=N/C(=C\c3ccco3)C(=O)N2)cc1` registered a TGI above 100 µM.

In the case of `CN(C)CCOc1ccc(-c2c(Oc3ccc(Cl)cc3)c(=O)oc3ccccc23)cc1`, the TGI is 20.9 µM.

Molecule `CCc1cccc(C)c1NC(=O)CC1Sc2ccccc2NC1=O` (stereo not drawn) registered a TGI above 100 µM.

`CCCCCC(C)C[C@H]1CO[C@H](c2ccc[nH]2)N[C@H]1C(=O)OC` (stereo partly drawn): the TGI is above 100 µM.

`Cc1ccc(C)c(NC(=O)/C(=N\NC(N)=S)C(C#N)c2ccccc2)c1` (stereo not drawn) yielded a TGI above 100 µM.

With `NC(N)=N/N=C/c1c(-c2cc(Cl)sc2Cl)nc2n1CCS2`, the GI50 is 8.07 µM and the TGI was 15.1 µM.

`O=S1(=O)c2ccccc2N2CCCc3cc(Cl)cc1c32` yielded a TGI above 100 µM.

`COC(=O)c1ccc(OCc2ccc3oc(=O)c(-c4ccccc4)nc3c2)cc1` yielded a TGI above 100 µM.

In the case of `S=C1CC(c2ccc(Cl)cc2)Sc2ccccc2N1` (stereo not drawn), the TGI is above 100 µM.

For `NC(N)=NNC(=O)C(=O)O`, the TGI is above 100 µM.

As to `Nc1nc(N)c2ncn(CC(CO)CC(c3ccccc3)P(=O)(O)O)c2n1` (stereo not drawn), the TGI was above 100 µM.

Regarding `Cc1ccc(S(=O)(=O)ON/N=C2/C3OC3[C@@H]3CCCC[C@H]23)cc1` (stereo partly drawn), the TGI was above 100 µM.

In turn, `Cc1nc2c(Br)cc(Br)cc2c(=O)n1-c1ccccc1N` came in with a TGI above 100 µM.

`O=C1Cc2c(-c3ccccc3)cc(-c3cccc(Cl)c3)nc2-c2ccccc2N1` registered a TGI of 13.9 µM.

In turn, `CC(=O)O/C(C)=C\C(=O)O/N=C(\N)c1ccc(C)cc1` had a TGI above 100 µM.

In turn, `CC1(C)N=C(N)N=C(N)N1c1cccc(CSc2ccccc2)c1` displayed a TGI above 100 µM.

As for `O=C1CSC2(CCN(CCCN3c4ccccc4Sc4ccc(Cl)cc43)CC2)N1`, the TGI is 24.9 µM.

Molecule `O=c1[nH]cnc2c1ncn2[C@H]1CO[C@@H](CO)[C@@H]1O` showed a TGI above 100 µM.

As for `COc1cc2c(cc1OCCCC(=O)Nc1cc(C(=O)Nc3cc(C(=O)NCCCN(C)C)n(C)n3)n(C)n1)N=CC1CCCN1C2=O` (stereo not drawn), the TGI was above 100 µM.

`Clc1ccc(OCc2nnc(CCCCCCCCc3nnc(COc4ccc(Cl)cc4Cl)o3)o2)c(Cl)c1` gave a TGI above 100 µM.

`c1cncc(C2c3[nH]c4ccccc4c3CCN2CCN2CCCCC2)c1` (stereo not drawn) yielded a TGI above 100 µM.

Regarding `CCOC(=O)/C=C(/C(=O)OCC)n1cc(C)c(=O)n(Cc2cnnn2CCCCOC(C)=O)c1=O`, the TGI was above 100 µM.

In turn, `COc1ccc2c(c1)CC[C@@H]1[C@@H]2CC[C@]2(C)/C(=N/OCCN3CCCCC3)CC[C@@H]12` gave a TGI of 11.3 µM.

For the molecule `CCOC(=O)/C=C/c1ccc(C(=O)OCC)[nH]1`, the GI50 was 4.1 µM and the TGI is above 100 µM.

As for `CO[P@]1(=O)O[C@@H](c2ccccc2)[C@H](O)[C@]1(O)c1ccccc1`, the TGI was above 100 µM.

Molecule `CC1(C)OC2C(=O)OC(COCc3ccccc3)C2O1` (stereo not drawn) had a TGI above 100 µM.

Consider `Cc1cc2occ(C)c(=O)c2c2c1OC(C)(C)S2`, for which the TGI is above 100 µM.

Take `NNC(=O)c1ccccc1NC(=O)/C(=C/c1ccccc1)NC(=O)c1ccccc1`: the TGI is above 100 µM.

`COc1cccc2c1C1=CC(=O)CCC1C(C)(C)O2` (stereo not drawn) showed a TGI above 100 µM.

Molecule `OC1CN=C2c3ccccc3C(O)(c3ccc(Cl)cc3)N2C1` (stereo not drawn) registered a TGI above 100 µM.

Molecule `CC1=C2N3C[C@@H](n4c(=O)n(C)c(=O)n43)C23CCC1n1c(=O)n(C)c(=O)n13` came in with a TGI above 100 µM.

As to `CC1(C)C2CCC1C(=O)C(C=O)C2` (stereo not drawn), the TGI was above 100 µM.

Regarding `C=C(Br)CN(C#N)CC(=C)Br`, the TGI was above 100 µM.

Turning to `O=C(c1cccs1)N(C(=O)N1CCC(c2ccccc2)CC1)c1ccccc1`, the TGI is above 100 µM.

As for `O=C(CSC1=NCCN1)c1ccccc1`, the TGI is above 100 µM.

As to `Cc1c(C(=O)CC(=O)C(=O)NC2C3CC4CC(C3)CC2C4)[n+](=O)c2ccccc2n1[O-]` (stereo not drawn), the TGI was above 100 µM.

`C=C[C@H]1CN2CC[C@H]1C[C@@H]2[C@@H](O)c1ccnc2ccccc12`: the TGI was above 100 µM.

In the case of `c1ccc2c(c1)SC1Sc3ccccc3[S+]21` (stereo not drawn), the TGI is above 100 µM.

For `CC(O)C(NC(=O)C(CS)NC(=O)C(CO)NC(=O)C(CCCCN)NC(=O)C(Cc1c[nH]c2ccccc12)NC(=O)C(Cc1ccc(O)cc1)NC(=O)C(CS)NC(=O)C(N)Cc1ccccc1)C(N)=O` (stereo not drawn), the TGI was > 25 µM and 51.2 µM.

As for `COc1nc2c(c(=O)n1C)N[C@@H]1[C@@H](O)[C@H](O)CO[C@@H]1N2`, the TGI is above 100 µM.

Take `CCCN(CCC)c1c([N+](=O)[O-])cc(S(N)(=O)=O)cc1[N+](=O)[O-]`: the TGI was 32.3 µM.

`O=C1OCC2=Nc3cccc4cccc(c34)N12` registered a TGI above 100 µM.

As to `CC(=O)Nc1ccc(Nc2nc(=O)[nH]c(=O)[nH]2)cc1`, the TGI was above 100 µM.

In the case of `CCN1C/C(=C\c2ccc(Cl)cc2)C2=NN(c3ccccc3)C(c3ccc(Cl)cc3)C2C1` (stereo not drawn), the TGI is above 100 µM.

As to `COc1cccc2c(=O)c3c(sc12)c(NCCCN)nc1ccccc13`, the GI50 is 1.52 µM and the TGI was 2.86 µM.

In turn, `CC(C)(C)N=CN1CCC(C(c2ccccc2)c2ccccc2)CC1` showed a TGI above 100 µM.

In turn, `COc1cccc(-c2cc(=O)c3cc(C)cnc3[nH]2)c1` had a TGI above 100 µM.

Regarding `CN(C)CCNC(=O)c1cc([N+](=O)[O-])cc2ccc(-c3ccccc3)nc12`, the TGI turned out to be 20.5 µM.

Regarding `COC(=O)CC1C2CC3C(C2=O)C13` (stereo not drawn), the TGI was above 100 µM.

With `CCn1c2c(c3c(C(=O)OC)c(O)ccc31)C(=O)c1ccccc1C2=O`, the TGI was determined as 76.5 µM.

On to `CCOC(=O)/C=C(/CN1C(=O)c2ccccc2C1=O)c1ccccc1`, for which the TGI is above 100 µM.

The molecule `C/C(=N/O)c1cccc(Nc2nc3ccccc3c3[nH]c4ccccc4c23)c1` gave a TGI of 7.38 µM.

In turn, `Cn1c(=O)c2c(nc3n2CCC(=O)N3)n(C)c1=O` registered a TGI above 100 µM.

Turning to `Cc1cc(O)cc(C)c1/C=C/c1cncc(C(=O)N(C)C)c1`, the GI50 is above 25 µM and the TGI was above 25 µM.

`CC[C@H]1C=CCC[C@@]2(C[C@@H]3CC[C@@H]4[C@H](C(=O)OCCCCCCCCCCCCCCCC(=O)N(CCCN)C[C@@H](O)CCN)[C@]5(CCC[C@@H](C)O5)NC(=[N+]34)N2)O1` came in with a TGI of 2.54 µM.

With `O=C(O)C(Cc1cccs1)C(=O)O`, the TGI is above 100 µM.

As for `COC1C(=O)CCC2(CO2)C1(O)C1(C)OC1CCC(C)C` (stereo not drawn), the TGI is above 100 µM.

`Cn1c2ccccc2n2c3nc4ccccc4nc3c(C#N)c12` showed a TGI above 100 µM.

`c1cc2c(cnc3cscc32)s1` gave a TGI above 100 µM.

`CC1=C(N2CC2)C(=O)c2nc3n(c2C1=O)CCC3O` (stereo not drawn) yielded a TGI of 1.66 µM.

`Nc1cc(CO)cc(Nc2c3ccccc3nc3occc23)c1` showed a TGI above 100 µM.

`COC(=O)C12C3C4C1C1C2C3C41I` (stereo not drawn): the TGI is above 100 µM.

In turn, `Cc1ccc2c3c1O[C@H]1c4nc5ccccc5cc4C[C@@]4(O)[C@@H](C2)N(CC2CC2)CC[C@]314` gave a TGI of 32.5 µM.

Molecule `COC(=O)C(Cc1ccccc1)NC(=O)CNC(=O)CSc1nnc(COc2ccc(Cl)cc2)n1-c1ccccc1` (stereo not drawn) gave a TGI of 32.6 µM.

`COc1ccc(-c2cc(-c3ccc(Nc4ccnc5cc(Cl)ccc45)cc3)nc(N)c2C#N)c2ccccc12`: the TGI was above 100 µM.

In turn, `CC(NCCS(=O)(=O)O)C(=O)O` (stereo not drawn) gave a TGI above 100 µM.

With `CC1=Nn2c(nc3sc4c(c3c2=O)CCCC4)SC1`, the TGI is above 100 µM.

Molecule `O=C(O)c1[nH]c(C(=O)O)c(CC(F)(F)C(F)(F)C(F)(F)F)c1CC(F)(F)C(F)(F)C(F)(F)F` came in with a TGI above 100 µM.

On to `C=C(CNCCO)[C@@H]1CC[C@]2(CO)CC[C@]3(C)[C@H](CC[C@@H]4[C@@]5(C)CCC(NCCc6ccc(O)cc6)C(C)(C)[C@@H]5CC[C@]43C)[C@@H]12` (stereo partly drawn), for which the GI50 is 1.7 µM and the TGI is 3.19 µM.

As to `Cc1ccc(-c2cc3nc(-c4ccccc4)nc(C(Cl)Cl)n3n2)cc1`, the GI50 is 0.64 µM and the TGI is 1.43 µM.

For the molecule `CCN(CC)C(=S)SSC1CCCCC1`, the GI50 is 41.4 µM and the TGI was above 100 µM.

The molecule `NC(=O)c1ccccc1NC(=O)C(=O)C(c1cnc2ccc([N+](=O)[O-])cc2n1)[N+](=O)[O-]` (stereo not drawn) showed a TGI above 100 µM.

`COC1CCC(OC2CC(C3(C)CCC4(CC(O)C(C)C(C(C)/C=C(\C)C(=O)C(C)CC(C)C(=O)O)O4)O3)OC3(OC(C4OC(O)(CO)C(C)CC4C)CC3C)C2C)OC1C` (stereo not drawn) returned a TGI of 3.68 µM.

Regarding `Cc1nc2ccccc2n1CCc1nc2ccccc2s1`, the TGI is above 100 µM.

As for `[Cl][Sn]([c]1ccccc1)[c]1ccccc1`, the GI50 was 15.1 µM and the TGI stood at 28.5 µM.
